According to PubChem BioAssay AID588453 (National Center for Advancing Translational Sciences (NCATS), 2011):
The campaign covered roughly 390,000 compounds. About 4,000 (1%) were called active. The inconclusive results got no clear call from the source; some entries with a clear call stand among them for comparison. Calls come from the whole dose curve; as a rule, active = well fitted inhibition curve with a large enough effect; inconclusive = small, poorly fitted or top-dose-only effect; inactive = no such curve, though single readings can be large or run the other way. Where the call is inconclusive, the potency comes from a doubtful curve fit.

What follows are molecules tested against Thioredoxin reductase 1, cytoplasmic (Rattus norvegicus) (UniProt O89049) (assay: qHTS Assay for Inhibitors of Mammalian Selenoprotein Thioredoxin Reductase 1 (TrxR1): qHTS). Settings: recombinant rTrxR1, NADPH fluorescence consumption, selenite substrate; series mostly up to 114 µM; activity change, negative = inhibition: at the top concentration.
UniProt O89049, sequence (O89049 whole entry, looked up): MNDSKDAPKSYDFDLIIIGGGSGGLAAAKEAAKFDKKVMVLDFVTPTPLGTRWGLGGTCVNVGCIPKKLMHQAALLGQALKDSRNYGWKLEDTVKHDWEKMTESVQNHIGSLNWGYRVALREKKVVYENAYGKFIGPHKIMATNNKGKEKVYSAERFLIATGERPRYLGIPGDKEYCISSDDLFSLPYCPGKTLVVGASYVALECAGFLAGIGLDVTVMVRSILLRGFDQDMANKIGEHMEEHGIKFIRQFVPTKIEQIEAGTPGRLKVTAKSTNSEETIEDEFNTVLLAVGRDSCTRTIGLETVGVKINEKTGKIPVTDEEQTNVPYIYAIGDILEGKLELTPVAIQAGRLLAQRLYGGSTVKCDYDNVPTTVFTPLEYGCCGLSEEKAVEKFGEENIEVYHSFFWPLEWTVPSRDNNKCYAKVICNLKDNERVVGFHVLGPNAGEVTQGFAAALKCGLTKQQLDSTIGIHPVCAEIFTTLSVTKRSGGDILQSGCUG
Summary of the method: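 Rat TrxR1 (90 nM in the dispensed reagent) was pre-reduced with 400 uM NADPH for 5 min at room temperature, then incubated with compound for 15 min. After 400 uM selenite was added, NADPH fluorescence (Ex 340/Em 450 nm) was followed for 8 min.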
% is set by controls: 0 for no effect and ±100 for the full control effect; potency is the fitted concentration of half-maximal effect; tags give direction and shape of the fitted curve.
Note: nearly all actives have a fitted effect of over 65% in size.

Compound	Potency	activity change, negative = inhibition
Cc1ccc(/C=N/NC(=O)c2ccco2)s1	inconclusive: 79.4 µM [inhibitor, single point]	–
Cc1ccc(-n2c(CCC(=O)O)ccc2-c2cccs2)cc1C	active: 44.7 µM	–
O=C(O)CNS(=O)(=O)Cc1ccccc1	–	inactive: 6.57%
O=C(O)CN1C(=O)N/C(=C\c2cccn2-c2ccc(P(=O)(O)O)cc2)C1=O	inconclusive: 79.4 µM [inhibitor, partial curve, poor fit]	–
O=c1[nH]c(=S)c2ncn(-c3ccccc3)c2[nH]1	inconclusive: 79.4 µM [inhibitor, single point]	–
Cc1ccccc1/C=C1\SC(=S)N(/N=C/c2cc([N+](=O)[O-])ccc2O)C1=O	inconclusive: 44.7 µM [inhibitor, partial curve, poor fit]	–
CCN(CC)S(=O)(=O)c1ccc(NC(=O)[C@H](CSCc2ccccc2)N2Cc3ccccc3C2=O)cc1	–	inactive: 4.42%
O=C(c1nc2ccccn2c1CNCCCn1ncc2ccccc21)N1CCCC1	inconclusive: 89.1 µM [inhibitor, single point]	–
O=C(c1cc(-c2ccco2)nc2ccccc12)N(Cc1nnc(-c2ccc(Cl)cc2)o1)C1CC1	inconclusive: 63.1 µM [inhibitor, single point]	–
CC(C)(C)n1ncc2c(=O)n(Cc3cccc(C(F)(F)F)c3)cnc21	–	inactive: 3.98%
Cc1ccc(C2C=C(c3ccc4c(c3)OCO4)Nc3ncnn32)cc1 (stereo not given)	inconclusive: 70.8 µM [inhibitor, single point]	–
Oc1cccc(CN2CCCCC2)c1	–	inactive: -5.72% [at 57.1 µM]
Cc1ccc(-c2nc3ccccc3n2C)o1	active: 22.4 µM	–
COCCCNC(=S)N1CCN(C(c2ccccc2)c2ccccc2)CC1	–	inactive: 4.93%
CCn1c(SCC(=O)NCc2ccco2)nnc1-c1cccs1	active: 14.1 µM	–
CCN1CCN(C(c2cccnc2)c2c(NC(=O)c3ccco3)sc(C)c2C)CC1 (stereo not given)	inconclusive: 89.1 µM [inhibitor, single point]	–
CS(=O)(=O)Cc1cccc(C(=O)NN(c2ccccc2)c2ccccc2)c1	–	inactive: -6.19% [at 57.1 µM]
Cc1ccc(S(=O)(=O)N2CCOCC2)cc1NC(=O)COc1ccc2c(C)cc(=O)oc2c1	–	inactive: -11.5%
CCOC(=O)c1cnc2sc3c(n2c1=O)CCCC3	inconclusive: 70.8 µM [inhibitor, single point]	–
CC(C)N1C/C(=C/c2ccsc2)C(=O)/C(=C/c2ccsc2)C1	inconclusive: 35.5 µM [inhibitor, partial curve]	–
CN(C)c1ccc(/C=C/c2ccnc3ccccc23)cc1O	–	inactive: -8.97%
O=C(c1ccc(Cl)c(S(=O)(=O)N2CCOCC2)c1)N(Cc1ccco1)Cc1cccs1	inconclusive: 31.6 µM [inhibitor, partial curve, poor fit]	–
COc1ccc(C2c3c(oc4ccccc4c3=O)C(=O)N2CCCN2CCOCC2)cc1 (stereo not given)	active: 35.5 µM	–
COc1ccc(OC)c(C2CC(=O)N3CN(c4ccccc4F)CSC3=C2C#N)c1 (stereo not given)	inconclusive: 10 µM [inhibitor, partial curve, poor fit]	–

Compound	Potency	activity change, negative = inhibition
COc1ccc(C2C=C(c3ccccc3)Nc3nc(NC(=O)c4ccc(C)cc4)nn32)cc1 (stereo not given)	–	inactive: 19.4%
O=[N+]([O-])c1cc([N+](=O)[O-])c(Oc2cc(Cl)ccc2Cl)cc1NC1CCCCCCC1	inconclusive: 5.62 µM [inhibitor, partial curve, poor fit]	–
CCOc1cc(-c2nc(-c3ccc(-c4ccc(C)cc4)nc3OC)no2)cc(OCC)c1OCC	–	inactive: 26.1%
Cc1sc(NC(=S)NC(=O)c2ccccc2)c(C#N)c1C	inconclusive: 1.78 µM [inhibitor, full curve]	–
CN(C)CCCN(C(=O)CCSc1ccccc1)c1nc2cc3c(cc2s1)OCO3	inconclusive: 25.1 µM [inhibitor, full curve]	–
O=C(NCc1ccc2c(c1)OCO2)c1ccc(S(=O)(=O)N2CCCCC2)cc1	–	inactive: 1.72%
Cc1ccc(S(=O)(=O)c2nc(-c3ccco3)oc2SCC(=O)NCC2CCCO2)cc1 (stereo not given)	inconclusive: 31.6 µM [inhibitor, partial curve]	–
COc1ccccc1NC(=O)c1c(NCc2sccc2C)sc2c1CCCCC2	inconclusive: 25.1 µM [inhibitor, single point]	–
CCN1C(=O)S/C(=C/c2ccc(Sc3nc4ccccc4[nH]3)o2)C1=O	–	inactive: -20.5%
Cc1oc2c(CN3CCCCC3)c(O)ccc2c(=O)c1-c1ccc(Cl)cc1	inconclusive: 70.8 µM [inhibitor, single point]	–
CCO[C@H]1OC(C(=O)O)=C[C@@H](C)[C@@H]1CCCO	inconclusive: 35.5 µM [inhibitor, single point]	–
O=C(Nc1nnc(-c2cccs2)o1)c1ccco1	–	inactive: -7.71%
COc1ccc(-c2cn3cccnc3n2)cc1F	inconclusive: 89.1 µM [inhibitor, single point]	–
CCOC(=O)C1=CN(Cc2ccco2)S(=O)(=O)N(C)C1CC (stereo not given)	inconclusive: 50.1 µM [inhibitor, partial curve, poor fit]	–
C#CCOCCOCCOCCNc1nc(N2CCN(C(=O)[C@H]([C@@H](C)CC)n3cc(CCC(=O)O)nn3)CC2)nc(N2CCN(C(=O)[C@H](Cc3ccc(O)cc3)n3cc(CCO)nn3)CC2)n1	inconclusive: 56.2 µM [inhibitor, partial curve, poor fit]	–
Cc1cc(Cl)ccc1NC(=S)NCc1ccc(Cl)cc1	–	inactive: 10.1%
Cc1ccc(CNC(=O)CS(=O)Cc2nc(-c3ccccc3F)oc2C)cc1 (stereo not given)	inconclusive: 79.4 µM [inhibitor, partial curve]	–
CCOC(=O)c1c(N2C(=O)CC(Sc3ccccc3C(=O)O)C2=O)sc(C)c1C (stereo not given)	inconclusive: 79.4 µM [inhibitor, single point]	–
Cc1ccc(CNC(=O)c2ccc(CS(=O)Cc3ccccc3Cl)o2)cc1 (stereo not given)	inconclusive: 56.2 µM [inhibitor, partial curve]	–
CCCSc1ccc([C@@H]2[C@H]3C(=O)N(CC)C(=O)[C@H]3[C@]3(C(=O)OC)CCCCN23)cc1OC	inconclusive: 70.8 µM [inhibitor, single point]	–
O=C1CN(C(=O)CC2C(=O)NCCN2Cc2ccccc2C(F)(F)F)CCN1 (stereo not given)	inconclusive: 79.4 µM [inhibitor, single point]	–
Cn1cnc2nc(Cl)nc(Cl)c21	inconclusive: 17.8 µM [inhibitor, partial curve]	–
CCN(CC)CCN1C(=O)C2C3c4ccccc4C(c4ccccc43)C2C1=O (stereo not given)	inconclusive: 31.6 µM [inhibitor, single point]	–
CC(C)N1CC(O)=C(c2ccccc2)C1=N	inconclusive: 10 µM [inhibitor, partial curve]	–

Compound	Potency	activity change, negative = inhibition
CCn1c(-c2ccccc2)c(C(=O)CCl)c2ccccc21	inconclusive: 50.1 µM [inhibitor, partial curve]	–
Nc1ncnc2c1ncn2C1CCC(CO)C(O)C1 (stereo not given)	–	inactive: 24.4%
N#C/C(=C\c1ccccc1)C(=O)N1CCN(c2ccccc2F)CC1	–	inactive: -23.2%
COC(=O)c1ccc(C(C2C(=O)CC(C)(C)CC2=O)C2C(=O)CC(C)(C)CC2=O)cc1	–	inactive: -46.1%
COc1ccc(/C=C2\CCCC3C2=NN(C(=O)c2scnc2C)C3c2ccc(OC)c(OC)c2)cc1OC (stereo not given)	inconclusive: 50.1 µM [inhibitor, partial curve, poor fit]	–
COc1ccc(C(=O)Nc2ccnn2C2CCN(Cc3ccncc3)CC2)cc1	inconclusive: 89.1 µM [inhibitor, partial curve, poor fit]	–
COc1ccc(C2C(C(=O)c3ccco3)=C(O)C(=O)N2c2nnc(C)s2)cc1OC (stereo not given)	inconclusive: 25.1 µM [inhibitor, partial curve, poor fit]	–
Cc1ccc(S(=O)(=O)NN2C(=O)/C(=C/c3ccc(C(=O)O)cc3)SC2=S)cc1	–	inactive: 15.8% [at 57.1 µM]
O=c1c(C(c2ccccc2)c2c(O)nc3n(c2=O)CCCS3)c(O)nc2n1CCCS2	inconclusive: 10 µM [inhibitor, full curve]	–
O=C(/C=C/c1ccccc1)NC(=S)Nc1ccc(N2CCOCC2)c(Cl)c1	–	inactive: 3.15%
COc1ccccc1NC(=O)CSC1CC(=O)N(c2ccc3c(c2)OCO3)C1=O (stereo not given)	–	inactive: -19.5%
Cc1ccc(NC(=O)CSc2ccc(-c3sc(-c4ccccc4)nc3C)nn2)cc1F	–	inactive: -8.25%
O=C(O)CCC(=O)N1CCC(C(=O)c2cccc(Cl)c2)CC1	inconclusive: 3.98 µM [inhibitor, partial curve, poor fit]	–
CC(C)(Oc1ccc(Cl)cc1)C(=O)NCC(c1ccco1)N1CCCCC1 (stereo not given)	–	inactive: -6.71%
O=C(CSC1=Nc2ccccc2C2CC=NN12)Nc1ccc2c(c1)OCO2 (stereo not given)	inconclusive: 15.8 µM [inhibitor, partial curve]	–
CCc1ccc(-c2cc(C(=O)O)c3ccccc3n2)s1	inconclusive: 39.8 µM [inhibitor, single point]	–
CNC(=S)N1N=C(c2ccc(C)cc2)CC1c1ccc(Cl)cc1 (stereo not given)	–	inactive: -6.06%
O=C(NCc1ccco1)c1cccnc1-c1nc2ccccc2s1	inconclusive: 79.4 µM [inhibitor, single point]	–
CCC(=O)Nc1ccc(C(=O)CSc2nnc(-c3ccc(O)cc3)n2CC2CCCO2)cc1OC (stereo not given)	inconclusive: 22.4 µM [inhibitor, partial curve, poor fit]	–
CCCN(CCC)CCCNC(=S)Nc1ccc2nc3n(c(=O)c2c1)CCCCC3	inconclusive: 14.1 µM [inhibitor, single point]	–
CCCCN(CCCC)C(=O)c1cc(Cl)ccc1[N+](=O)[O-]	–	inactive: -22.8%
C=CCc1cc(/C=C/c2nc(O)c([N+](=O)[O-])c(=O)[nH]2)cc(OC)c1O	inconclusive: 25.1 µM [inhibitor, single point]	–
